This is one part of the list. At the low end of the ranking the order means little. Measured with an extract: partners may take part in the binding.

The target in the assay is T1, HNF4alpha2 (COS-7 nuclear extract) (UniProt P41235).
T1 sequence: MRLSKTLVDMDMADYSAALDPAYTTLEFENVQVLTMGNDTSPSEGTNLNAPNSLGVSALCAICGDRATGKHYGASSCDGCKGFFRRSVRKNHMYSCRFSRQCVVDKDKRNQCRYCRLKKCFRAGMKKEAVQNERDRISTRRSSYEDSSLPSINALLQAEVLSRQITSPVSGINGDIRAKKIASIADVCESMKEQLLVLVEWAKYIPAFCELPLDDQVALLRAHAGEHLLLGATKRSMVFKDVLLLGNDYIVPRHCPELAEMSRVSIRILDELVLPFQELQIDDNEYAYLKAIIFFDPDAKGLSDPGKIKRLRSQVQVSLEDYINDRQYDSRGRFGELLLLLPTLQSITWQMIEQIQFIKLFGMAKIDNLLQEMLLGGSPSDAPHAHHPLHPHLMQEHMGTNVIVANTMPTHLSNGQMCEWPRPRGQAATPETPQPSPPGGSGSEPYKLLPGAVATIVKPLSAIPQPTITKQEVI
Kind of assay: protein-binding microarray. Particulars: COS-7 nuclear extract on double-stranded Agilent 4x180k PBM; binding buffer, salt, pH and temperature not given; high values mean tight binding; double strand, one strand shown; sequences stand for … in …GCCTAGGGAGATTAGAGTATCGGTCGA
As to CCAGAACCTTGTGCAGTATCCCAGGGACTT, the binding signal (log2 normalized intensity) was -1.07.

Take TTTTTTCCGAACGCCAGCAGCAGGGTCAGA: the binding signal (log2 normalized intensity) was 1.1.

In the case of TTCATGGGTGAAAGGGACTCATCTCCAAAC, the binding signal (log2 normalized intensity) is -0.725.

For CTCTTGCTATGCCTTAGCAAACAGACTGGT, the binding signal (log2 normalized intensity) is 0.115.

For the sequence CAGCCCCAATGGCTAAGGTCACCATGACCA, the binding signal (log2 normalized intensity) was 2.11.

ATCAAATACAGAATCAATGCCTGATTCCAA: the binding signal (log2 normalized intensity) is -1.06.

For GCTGGAACTCCTCCGGTCAAGATCAAGTGG, the binding signal (log2 normalized intensity) was 0.207.

As for CGGCCTCTGGGAAATGTAGTTCCGGAGAAC, the binding signal (log2 normalized intensity) was -0.704.

Regarding AGCTATGCCTGAGGCTGAGGTTGCCCAGGG, the binding signal (log2 normalized intensity) is -1.09.

GCAATCATGCACCTGCGGATAATCAAAGGT: the binding signal (log2 normalized intensity) is -1.05.

In the case of ACCTGTGTCCCCCAGGTCCAGCCTTTGGGC, the binding signal (log2 normalized intensity) was found to be 2.67.

Take CTTTTTCTGAGCCTGGGTCACCCCTATAAT: the binding signal (log2 normalized intensity) was determined as 2.16.

Turning to CAAGAAGGTCAGAGGTGAGAGCAGAATGAG, the binding signal (log2 normalized intensity) is -1.18.

As for GAGAGCTGTCTGCTGAGGATGTGGCCCCGA, the binding signal (log2 normalized intensity) was found to be 2.25.

On to ATCTTCATTTATAGATAAGCACACTAAGGC, for which the binding signal (log2 normalized intensity) is -1.04.

Turning to ACAGAACCTTGTTTTGTCTTCTGTTTGCAA, the binding signal (log2 normalized intensity) was found to be 0.845.

With CACTTGTAGGCCTGTGTGCATGGAGTGCAC, the binding signal (log2 normalized intensity) worked out at 1.42.

On to CGCAGCGAATGGTCGCGCCGGGCGCCGCTC, for which the binding signal (log2 normalized intensity) is -1.06.

As to CTCCTCTCCAGCCCATCCTAAGCCCCAGGG, the binding signal (log2 normalized intensity) was 1.15.

For CATCCTCATTGCCTCTGGGCTTTGATGGAC, the binding signal (log2 normalized intensity) was 1.64.

With AGCTTAGTTTGCCACGGTCAGCAATGTGGA, the binding signal (log2 normalized intensity) worked out at 1.21.

For the sequence GCAGAGGGACAACTGAGTTACGTAATGTGT, the binding signal (log2 normalized intensity) came out at 1.36.

ATCTGGTCTTACTGATGGGCAAAGTTTTCA: the binding signal (log2 normalized intensity) was determined as 1.19.

For the sequence ACTAAATTCTTGTCAATGACCCTAATGGGG, the binding signal (log2 normalized intensity) was found to be 2.16.

On to AAGTGGGGGGAAAGAATAACGTTACAGTGG, for which the binding signal (log2 normalized intensity) was -0.842.

As to CTGAGGGGGGCCTCTTTTAAGAAGCCAGTG, the binding signal (log2 normalized intensity) was -1.17.

Consider AACCTCACAGAAATCCAAAGGTCAACAGCC, for which the binding signal (log2 normalized intensity) came out at 3.85.

As for TAATCAGCTTAAGCATACAGATTACATCTC, the binding signal (log2 normalized intensity) was -0.798.

Consider ACAAGACCACAAGGTGGCGATAACTCCTTT, for which the binding signal (log2 normalized intensity) is -1.06.

ACCTCATTGTGATGTGTGCGTTCATCTCAC: the binding signal (log2 normalized intensity) was determined as 2.09.

Turning to GTGGGAGGCCAAGAGATAAAAGAGAAGATA, the binding signal (log2 normalized intensity) is -1.08.

Consider AGCTCTAGAACGCTGACTCCGGGGAGCAGG, for which the binding signal (log2 normalized intensity) is -1.15.

Take GTCCCTGCTTGATAAGACTGACAACCGGCT: the binding signal (log2 normalized intensity) is -1.21.

On to TCCTCTTATCTTCAGGTATCCTTAAACACT, for which the binding signal (log2 normalized intensity) worked out at 0.481.

Turning to TGGAACTGACATGCTGTCACTTCTGCTGCA, the binding signal (log2 normalized intensity) is -1.23.

TTCTCAATGTCTTTCCTGCAGAGGGACTGA: the binding signal (log2 normalized intensity) turned out to be 1.72.

Regarding TTGTTTAGGTACAAAGTCCATTGGAAGCCA, the binding signal (log2 normalized intensity) was determined as 5.82.

CCAACATTCCAGAGAAGCACATCCAGGCAG: the binding signal (log2 normalized intensity) is -1.15.

With GACAATAATGAATAAGCACGTTAGAGAAAA, the binding signal (log2 normalized intensity) was -1.06.

On to GCCAAACTTGGGTTTATGGCTTATGCATGT, for which the binding signal (log2 normalized intensity) came out at 1.

In the case of TAATCAGAGCAGGAATTCTGATCTTTGACC, the binding signal (log2 normalized intensity) is 7.18.

As to TATGGCAGGGTCGGAATGTCTGGGCAAAGG, the binding signal (log2 normalized intensity) worked out at 1.35.

Consider CACCCACTTGGATAATTTCTTATAAGCCGA, for which the binding signal (log2 normalized intensity) was -1.04.

For the sequence TCCACAGAGCACAGGATCCAGAGGTCACCC, the binding signal (log2 normalized intensity) came to 2.54.

As to GTTGGAAAAAAAAAAAAGTAGTAGGAGGAG, the binding signal (log2 normalized intensity) was -1.11.

For GCAATGCCTCGCCCTGCTTCGGCTCGCGCA, the binding signal (log2 normalized intensity) was -1.15.

As for TGGGCAAGATGGCTCTCCCGGGGCGGGGGT, the binding signal (log2 normalized intensity) was -1.06.

Take CTCCAGGTACAAGGATAAATACTTCTCCTC: the binding signal (log2 normalized intensity) is -1.15.

CCCGGTGCGCTGGCCTTGCTTTTCACAGTC: the binding signal (log2 normalized intensity) was -1.14.

On to GTAAAGTCTGGCATACAGGGTCCAAAGGTG, for which the binding signal (log2 normalized intensity) turned out to be 5.94.

Turning to TTGCATGAGAATCTGACCTTTGGTTAACTT, the binding signal (log2 normalized intensity) stood at 4.89.

For the sequence CTGGCAGCACCTGAAGAATTTGGACTTTGC, the binding signal (log2 normalized intensity) was determined as 7.7.

With CAGGATCTCAGCCGCGCGGCTTCAGAGGCC, the binding signal (log2 normalized intensity) is -1.25.

As for CACATTGTTTTGGAGTTAGCTGTCTTTCTG, the binding signal (log2 normalized intensity) was found to be 1.47.

Turning to AGGTAGTCCCTGCTCCACGCAAACACAAAA, the binding signal (log2 normalized intensity) is -1.02.

For TGGCAGGGGCGCGGCCTAATGCCTGGGAAA, the binding signal (log2 normalized intensity) was -1.1.

Consider GAAGACCTTCAACTGATTAGATAAGGTTCA, for which the binding signal (log2 normalized intensity) was determined as 0.886.

For TCAGACTGCTTCTCTGCTGGGGCCCTCACG, the binding signal (log2 normalized intensity) was -1.13.

On to TAGGTGCTCTTGGCTAAGACAGGGGCTATT, for which the binding signal (log2 normalized intensity) was -0.628.

For the sequence TTTCACCTGGGGCCTTGGGCCACCTGAGAC, the binding signal (log2 normalized intensity) is -1.01.

With CAGAGTAAACAGGTAAACAGCTGTGCCATG, the binding signal (log2 normalized intensity) was -1.04.

For the sequence TTTTCCTTTGTTGGTTTTGCCCGAGGTCTG, the binding signal (log2 normalized intensity) was 1.86.

Consider AAAGATTGCATGAGATTTTGCTCAACAAAT, for which the binding signal (log2 normalized intensity) was -0.952.

On to GAGAAATCACGGACTATCCCCGTCCGCGGA, for which the binding signal (log2 normalized intensity) is -1.18.

As for TTCCTGGGCTCAAACAATCCTCCCACCTCA, the binding signal (log2 normalized intensity) is 1.49.

Regarding GACTGGGTGTGGGGGTGGAGAAGGAAGGGG, the binding signal (log2 normalized intensity) was -1.01.

On to CAGTGAAAACAGCCCTAACCAGGGGTGGGG, for which the binding signal (log2 normalized intensity) was -1.13.

In the case of TTCTCAAACCTTCCAAAGTTCAACCTCATT, the binding signal (log2 normalized intensity) was found to be 2.3.

Take GAGACTTTGGACTTTGGACTTGGGACTTTC: the binding signal (log2 normalized intensity) worked out at 9.27.

Regarding TGGAGCATGACCCTTTGCAGGTGGGAGAGG, the binding signal (log2 normalized intensity) came to 0.139.

Take CAGCCAGCAGGGGGCGCAGAAGGGATGGGA: the binding signal (log2 normalized intensity) was -1.13.

As for CAACTGTGTGTGGCCTGCACAGTTGCACAA, the binding signal (log2 normalized intensity) is -1.2.

Values taken from article PMC10726135.
